The text below walks through data of article PMC4336329 (PLoS ONE, 2015).

Hit rate of the full screen: of about 310,000 compounds, about 2,200 (0.71%) showed an effect of 50% or more. Effects have a minus sign here. This is one part of the list.

The experiment deals with human ether-à-go-go-related gene (hERG) potassium channel (human, UniProt Q12809). Briefly: primary screen, population patch clamp on CHO cells stably expressing hERG.
Chain of human ether-à-go-go-related gene (hERG) potassium channel (Q12809 whole entry, looked up): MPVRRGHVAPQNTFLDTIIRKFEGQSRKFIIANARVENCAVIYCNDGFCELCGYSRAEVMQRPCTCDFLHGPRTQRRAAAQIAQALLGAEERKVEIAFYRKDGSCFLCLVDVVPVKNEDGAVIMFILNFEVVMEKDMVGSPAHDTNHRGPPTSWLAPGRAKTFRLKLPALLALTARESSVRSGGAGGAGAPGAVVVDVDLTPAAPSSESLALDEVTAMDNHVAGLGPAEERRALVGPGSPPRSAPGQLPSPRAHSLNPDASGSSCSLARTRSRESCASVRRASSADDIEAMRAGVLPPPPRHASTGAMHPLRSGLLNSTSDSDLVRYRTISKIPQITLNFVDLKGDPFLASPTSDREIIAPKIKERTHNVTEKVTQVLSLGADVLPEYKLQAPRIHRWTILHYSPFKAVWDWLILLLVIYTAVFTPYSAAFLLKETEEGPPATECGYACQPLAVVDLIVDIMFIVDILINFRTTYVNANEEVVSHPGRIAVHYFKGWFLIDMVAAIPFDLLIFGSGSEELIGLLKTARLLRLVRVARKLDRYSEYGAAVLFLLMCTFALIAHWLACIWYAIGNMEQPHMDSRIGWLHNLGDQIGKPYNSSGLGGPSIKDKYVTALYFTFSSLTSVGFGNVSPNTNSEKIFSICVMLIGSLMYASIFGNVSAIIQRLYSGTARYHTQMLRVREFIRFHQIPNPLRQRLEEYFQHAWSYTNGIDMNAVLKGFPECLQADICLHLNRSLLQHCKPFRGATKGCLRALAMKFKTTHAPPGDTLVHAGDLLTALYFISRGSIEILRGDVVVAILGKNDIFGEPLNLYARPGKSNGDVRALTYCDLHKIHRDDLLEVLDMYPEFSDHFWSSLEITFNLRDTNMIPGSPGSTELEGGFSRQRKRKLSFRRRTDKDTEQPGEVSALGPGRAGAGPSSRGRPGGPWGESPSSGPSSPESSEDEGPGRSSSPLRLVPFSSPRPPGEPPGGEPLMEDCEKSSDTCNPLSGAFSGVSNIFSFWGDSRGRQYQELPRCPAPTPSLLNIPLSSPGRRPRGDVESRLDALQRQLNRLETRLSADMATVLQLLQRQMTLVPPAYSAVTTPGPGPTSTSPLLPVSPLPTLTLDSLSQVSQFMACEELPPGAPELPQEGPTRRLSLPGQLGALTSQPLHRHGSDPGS
Turning to `CC(=O)NC(Cc1ccccc1)c1ccc2c(c1)OCCCO2` (stereo not drawn), the “hERG current change (%, negative = inhibition) at 1uM” value was -2.5%. As for `Cc1ccc(-n2c3c(c(=O)[nH]c2=O)C(C(F)(F)F)(C(F)(F)F)NC(=O)N3)cc1`, the “hERG current change (%, negative = inhibition) at 1uM” value is 15.3%. With `CCNC(=O)COC(=O)c1ccc(NS(=O)(=O)c2ccc3c(c2)OCCO3)cc1`, the “hERG current change (%, negative = inhibition) at 1uM” value turned out to be 19.5%. The figure for `CC(=O)C1C(c2ccc(Br)cc2)c2c(noc2C)CC1(C)O` (stereo not drawn) is 9.06%; for `O=S(=O)(NCc1ccccc1Br)c1ccccc1Br` it is 13.1%. Regarding `O=C(Cn1cc([N+](=O)[O-])cn1)Nc1ccn(Cc2c(F)c(F)c(F)c(F)c2F)n1`, the “hERG current change (%, negative = inhibition) at 1uM” value is recorded as -17.8%.

As for `COc1ccc(Br)cc1S(=O)(=O)N1CCCC1`, the “hERG current change (%, negative = inhibition) at 1uM” value is on record as 6.06%. The figure for `CC(=O)c1cccc(Nc2nc(-c3sc(C)nc3C)cs2)c1` is 14.1%; for `CC(=O)c1cccc(NC(=O)N2CCCC(C(=O)c3cc(F)ccc3F)C2)c1` (stereo not drawn) it is 6.28%; for `O=C1C2=C(SCCS2)C(=O)N1c1ccccc1` it is 20.6%. The figure for `O=C(COC(=O)COc1ccccc1[N+](=O)[O-])Nc1ccc(S(=O)(=O)N2CCCCC2)cc1` is 2.87%; for `C[C@@H]1C=C(C(=O)NCc2nc3ccccc3[nH]2)O[C@H](OCc2ccc(CO)cc2)C1` it is 4.23%; for `O=C(Nc1cccc(C(=O)O)c1)/C(=C\c1ccc2c(c1)OCO2)NC(=O)c1ccc(Br)cc1` it is 20.3%. The result for `C=CCSc1nsc(N)n1` reads 15.2%; that for `CCS(=O)(=O)c1nc2ccccc2n1Cc1ccccn1`, 10.1%; that for `CC(=O)N1CCN(c2ccccc2NC(=O)COc2cc(C)ccc2C(C)C)CC1`, -0.11%. `Cc1ccccc1NC(=O)CC(O)(C(F)(F)F)C(F)(F)F`: the “hERG current change (%, negative = inhibition) at 1uM” value was -3.01%.

Regarding `CCOC(=O)c1c(-c2ccc(C)cc2)csc1/N=C/N(C)C`, the “hERG current change (%, negative = inhibition) at 1uM” value is on record as 2.17%. The figure for `C/C(CCN1CCc2nc(-c3ccccc3)c(-c3ccccc3)cc2C1)=N\O[C@@H](C)c1cc(-c2c(C)cc(C)cc2C)no1` is 3.32%. The result for `Cc1ccc(S(=O)(=O)N2[C@@H](c3ccc(Cl)cc3)C(C(=O)O)=CC[C@H]2c2ccc(Cl)c(Cl)c2)cc1` reads 17.3%.

For the compound `O=C(CNC(c1ccccc1)c1ccccc1)Nc1cc([N+](=O)[O-])ccc1Cl`, the “hERG current change (%, negative = inhibition) at 1uM” value amounted to 16.3%.

For the compound `CCCCCCOC(=O)c1ccccc1NC(=O)/C=C/C(=O)O`, the “hERG current change (%, negative = inhibition) at 1uM” value is listed as -5.34%. The figure for `O=C(COc1ccc(S(=O)(=O)N2CCOCC2)cc1Cl)NC1CCCCC1` is 10.7%; for `Cc1ccccc1NC(=O)CSc1nnc(C2CC2)n1CC1CCCO1` (stereo not drawn) it is 17.2%. In the case of `CCc1ccccc1NC(=O)CN1CCN(C(=O)COc2ccccc2C#N)CC1`, the “hERG current change (%, negative = inhibition) at 1uM” value is given as 8.9%. The result for `COc1ccc(NC(=O)CN(C)C(=O)c2ccc(NS(=O)(=O)c3ccc4[nH]c(=O)[nH]c4c3)cc2)cc1` reads 14.8%. The figure for `O=C(NC1CCCCCC1)c1ccc(Br)o1` is 6.47%; for `CCOC(=O)Cn1nnnc1CN1CCN(c2ccc(OC)cc2)CC1` it is 1.34%. Regarding `CC1(NC(=O)c2cccc(S(=O)(=O)N3CCN(c4ccc(F)cc4)CC3)c2)CCS(=O)(=O)C1` (stereo not drawn), the “hERG current change (%, negative = inhibition) at 1uM” value was 9.97%.

With `C/C(=N/NC(=O)c1ccncc1)C1=C(O)CC(C)(C)CC1=O`, the “hERG current change (%, negative = inhibition) at 1uM” value turned out to be 13.7%. The result for `Cc1ccc(S(=O)(=O)/C(C#N)=C/c2c(N3CCN(C)CC3)nc3c(C)cccn3c2=O)cc1` reads -4.1%; that for `COc1cccc(OC)c1C(=O)Nc1cccc(C(=O)Nc2cccc(C(=O)O)c2)c1`, 17.8%. `Nc1nc(COC(=O)C2CCN(C(=O)c3ccc(Cl)cc3)CC2)nc(Nc2ccccc2)n1`: the “hERG current change (%, negative = inhibition) at 1uM” value was -12.2%. As to `Cc1ccc(S(=O)(=O)N2[C@@H](c3cccc(Cl)c3)C(C(=O)O)=CC[C@H]2c2ccc(Cl)c(Cl)c2)cc1`, the “hERG current change (%, negative = inhibition) at 1uM” value came out at 15%. Take `Cc1sc2ncnc(SCC(=O)NCC(C)C)c2c1C`: the “hERG current change (%, negative = inhibition) at 1uM” value is 0.602%. The figure for `O=C(O)CCc1nc(-c2ccccc2Cl)no1` is 15.8%; for `COc1ccc(CC(=O)OCC(=O)NC(=O)NC2CCCCC2)cc1` it is 7.43%. The result for `COC1(NS(=O)(=O)c2ccc(Br)cc2)C(C)=CC(=O)C=C1C` reads 23.2%.

Regarding `N#Cc1ccc(CN2CCN(C(=O)CCNS(=O)(=O)c3ccc(F)c(Cl)c3)CC2)cc1`, the “hERG current change (%, negative = inhibition) at 1uM” value is on record as -29.3%. In the case of `COc1ccc(Nc2ccccc2NC(=O)c2ccccc2Br)cc1`, the “hERG current change (%, negative = inhibition) at 1uM” value was 5.55%.

Take `CCn1c2ccccc2c2nnc(SCC(=O)NCc3cccs3)nc21`: the “hERG current change (%, negative = inhibition) at 1uM” value was 13%. The result for `CC(c1ccccc1)N(C)C(=O)CN1CCN(S(=O)(=O)c2ccc3c(c2)OCCCO3)CC1` (stereo not drawn) reads 10.3%; that for `Cc1ccsc1C(=O)OCC(=O)N1CCc2ccccc2C1`, 2.31%.

With `O=C(NCCC1=CCCCC1)c1cc2c(s1)CS(=O)(=O)C2`, the “hERG current change (%, negative = inhibition) at 1uM” value came out at 1.51%. On to `CC(=O)c1cc(F)ccc1OCC(=O)N1CCCc2ccccc21`, for which the “hERG current change (%, negative = inhibition) at 1uM” value came out at 10.8%. The result for `Cc1cc(C)c2nc(NNC(=O)c3ccc(S(=O)(=O)N4CCCC(C)C4)cc3)sc2c1` (stereo not drawn) reads 9.1%; that for `COc1cc(C(=O)NC(=S)Nc2cccc(-c3cc4ccccc4oc3=O)c2)cc(OC)c1OC`, 7.7%.

Turning to `CC(CCN1CCN=C1Nc1ccccc1)c1ccccc1` (stereo not drawn), the “hERG current change (%, negative = inhibition) at 1uM” value is recorded as -1.71%. Turning to `CCN(CCCNC(=O)CCCN1C(=O)COc2ccc(C)cc21)c1cccc(C)c1`, the “hERG current change (%, negative = inhibition) at 1uM” value amounted to 2.11%. The figure for `CCS(=O)(=O)c1ccc(OC)c(N=Nc2ccc(O)c3ncccc23)c1` is 9.51%; for `COc1ccc(C)cc1S(=O)(=O)Nc1ccc(F)cc1` it is 9.23%.

`Clc1ccc(Cn2ncc3c(N4CCCC4)ncnc32)cc1`: the “hERG current change (%, negative = inhibition) at 1uM” value was -6.47%. The figure for `COc1ccc(C(=O)NC2c3ccccc3-c3ccccc32)cc1` is 23.6%. The figure for `Cc1ccnc(SCC(=O)N2CCc3ccccc3C2)n1` is 10.3%; for `Cc1ccc(N2CCN(C(=O)CN3C(=O)c4ccccc4C3=O)CC2)cc1` it is -1.58%. For the compound `CCN(CC)CCCN=C1N[C@@H](c2ccccc2)C(C(=O)OC)=C(C)N1CC`, the “hERG current change (%, negative = inhibition) at 1uM” value came to 14.7%. Consider `COc1cc2[nH]c(C(=O)N3CCN(C)CC3)cc2c(OC)c1OC`, for which the “hERG current change (%, negative = inhibition) at 1uM” value is listed as 6.2%. As to `CC(=O)Oc1ccc2c(c1)Oc1cc(OC(C)=O)ccc1C21OC(=O)c2ccccc21`, the “hERG current change (%, negative = inhibition) at 1uM” value stood at 9.29%. The result for `COc1cc(C)c(NC(=O)Cc2ccsc2)cc1OC` reads 23.1%; that for `CC(=O)NC(Cc1ccccc1)C(=O)NC1CCN(C(=O)c2cnccn2)CC1` (stereo not drawn), 2.78%; that for `CN1CCN(CCNC(=O)c2cn(Cc3ccccc3F)nn2)CC1`, 7.06%. The figure for `CCOc1ccc(/C=N/N2C(C)CCCC2C)cc1` (stereo not drawn) is 12%; for `Cc1ccc2nc(SC(C)C(=O)N3CCCC3)[nH]c2c1` (stereo not drawn) it is 17.3%; for `CCOC(=O)N1CCN(C(=O)c2ccc3c(=O)n(Cc4ccc(OC)cc4)c(=S)[nH]c3c2)CC1` it is 4.27%. The figure for `O=C(O)c1cccc(S(=O)(=O)N2CCC(Cc3ccccc3)CC2)c1` is 15%; for `C=CCc1c(O)c(CC)cc2c(C)cc(=O)oc12` it is 13.6%. As for `COc1ccc(CC2CC(=O)N(c3ccc(C)cc3)C2=O)cc1` (stereo not drawn), the “hERG current change (%, negative = inhibition) at 1uM” value stood at 16%. The figure for `COc1cc(OC)c(OC)cc1CN1CCN(Cc2ccc(C(F)(F)F)cc2)CC1` is 3.19%; for `CCn1c(SCC(=O)NC2CCCCC2)nnc1-c1ccccn1` it is 5.2%; for `CCOC(=O)C1=C(CN2CCSCC2)NC(=O)NC1c1ccc2c(c1)OCO2` (stereo not drawn) it is -3.44%. As to `Nc1cnc(Br)cc1Br`, the “hERG current change (%, negative = inhibition) at 1uM” value came out at 6.15%. In the case of `CCS(=O)(=O)N1Cc2ccccc2CC1C(=O)Nc1ccccc1OC` (stereo not drawn), the “hERG current change (%, negative = inhibition) at 1uM” value stood at 9.91%. As for `COc1ccc(-c2nn(-c3ccccc3)cc2C(=O)NC2CCCCC2C)cc1` (stereo not drawn), the “hERG current change (%, negative = inhibition) at 1uM” value is listed as 7.18%. The figure for `O=c1cc(C(F)(F)F)[nH]c2ccc(C(F)(F)F)cc12` is 13%.

On to `CCOC(=O)Cc1csc(NC(=O)c2cnc3sc(C)cn3c2=O)n1`, for which the “hERG current change (%, negative = inhibition) at 1uM” value amounted to 6.11%. The result for `CS(=O)(=O)N(CC(O)CON=C1c2ccccc2-c2ccccc21)c1ccc(F)cc1` (stereo not drawn) reads 17.5%; that for `Cc1ccc(SCC(=O)OCC(=O)NCCCc2ccccc2)cc1`, 14.5%; that for `COc1cc(C(C)=O)ccc1OCC(O)CN1CCN(c2ccc(F)cc2)CC1` (stereo not drawn), -10.8%. The figure for `OCCCNC(=S)Nc1ccc(Br)cc1Cl` is 15.5%; for `CS(=O)(=O)c1nc(-c2ccc(Br)cc2)cc(-c2ccccc2)c1C#N` it is 7.03%. The figure for `C=CCOc1ccccc1CNCCc1ccc(S(N)(=O)=O)cc1.Cl` is -6.97%; for `CN(C)S(=O)(=O)N(CC(=O)NCCSCc1ccc(Cl)cc1)c1ccccc1` it is 9.35%. For `COC(=O)C1C2c3ccccc3OC1(C)N=c1s/c(=C/c3cnn(C)c3C)c(=O)n12` (stereo not drawn), the “hERG current change (%, negative = inhibition) at 1uM” value is reported as -5.94%. The result for `CCN(CC)S(=O)(=O)c1ccc2[nH]cc(C(=O)NC3CC3)c(=O)c2c1` reads 18.2%; that for `CCCN(C(=O)CN1C(=O)NC2(CCCCCC2)C1=O)C1CCS(=O)(=O)C1` (stereo not drawn), 17.1%; that for `Cc1ccccc1NC(=O)CSc1nc2ccccc2c2nc(CCn3cncc3C)nn12`, -33.1%. The figure for `Cc1ccc(S(=O)(=O)CCC(=O)NC2CCCCC2)cc1` is 6.91%.
